# Experimental data taken from PubChem BioAssay AID1745853 (National Center for Advancing Translational Sciences (NCATS), 2022).
# Some of the results follow. These are further read-outs of the screen, such as a control signal, another cell line or another target. No call is given for them.
# Tests used:
# Test in all cases: Primary Screen for Target Class Profiling of Small Molecule Inhibitors of Methyltransferases
# [1] = molecular target: Glycine N-methyltransferase (Homo sapiens) (UniProt Q14749); details: purified enzyme, MTase-Glo SAH luminescence; measured here: GNMT inhibition; at 40 µM; stronger effect = lower value
# In short: (§1)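 Each enzyme was reacted with SAM and its substrate, with compounds tested once at 40 uM; SAH formed was read by MTase-Glo luminescence.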
# [2] = molecular target: Guanidinoacetate N-methyltransferase (Homo sapiens) (UniProt Q14353); details: purified enzyme, MTase-Glo SAH luminescence; measured here: GAMT inhibition; at 40 µM; stronger effect = lower value
# In short: as §1
# [3] = molecular target: Histamine N-methyltransferase (Homo sapiens) (UniProt P50135); details: purified enzyme, MTase-Glo SAH luminescence; measured here: HNMT inhibition; at 40 µM; stronger effect = lower value
# In short: as §1
# [4] = molecular target: Nicotinamide N-methyltransferase (Homo sapiens) (UniProt P40261); details: purified enzyme, MTase-Glo SAH luminescence; measured here: NNMT inhibition; at 40 µM; stronger effect = lower value
# In short: as §1
# [5] = molecular target: Phenylethanolamine N-methyltransferase (Homo sapiens) (UniProt P11086); details: purified enzyme, MTase-Glo SAH luminescence; measured here: PNMT inhibition; at 40 µM; stronger effect = lower value
# In short: as §1
# % is set by controls: 0 for no effect and ±100 for the full control effect.
Compound,"activity change, negative = inhibition [1]","activity change, negative = inhibition [2]","activity change, negative = inhibition [3]","activity change, negative = inhibition [4]","activity change, negative = inhibition [5]"
CC(=O)Nc1c2n(c3ccc(F)cc13)CC(C)(C(=O)NC1CCCC1)N(Cc1ccc(F)cc1)C2=O (stereo not drawn),-5.38%,4.79%,-1.34%,-3.03%,-4.06%
Cc1cc(C(=O)N2CC(N(C(=O)NC(C)C)C3CCOCC3)C2)nn1C,-0.226%,1.45%,1.69%,-1.07%,-11.6%
O=C(COc1ccccc1)N1CCOC[C@H](Oc2ccccc2)C1,-5.42%,-3.9%,-2.59%,-12.4%,5.5%
CCCn1c(=O)c2ccc(C(=O)NC3CCCCC3)cc2n2c(SCC(=O)NC(C)(C)C)nnc12,8.49%,3.54%,6.43%,5.56%,9.39%
Cc1ccc(CN2C(=O)c3ccc(-c4ccccc4)n3CC2(C)C(=O)NC2CCC(C)CC2)cc1 (stereo not drawn),6.29%,0.888%,5.46%,-1.23%,1.93%
O=C(O[C@H]1[C@@H]2C=CO[C@@H](O[C@@H]3O[C@H](CO)[C@@H](O)[C@H](O)[C@H]3O)[C@@H]2[C@@]2(CO)O[C@@H]12)c1ccc(O)c(O)c1,3.58%,4.65%,10.6%,-7.05%,2.6%
CCOC(=O)N1CCN(C(=O)Cn2sc3nc(C)cc(C)c3c2=O)CC1,–,-7.16%,–,-8.9%,3.51%
CCC(C)(O)C(O)C(=O)OCc1ccc(O[C@@H]2O[C@H](CO)[C@@H](O)[C@H](O)[C@H]2O)cc1 (stereo partly drawn),0%,4.15%,4.64%,-7.06%,6.74%
O=C1NC2(CCCN(Cc3ccccc3C(F)(F)F)C2)COc2ccccc21 (stereo not drawn),-8.39%,-9.03%,-5.82%,-12.3%,-5.01%
c1ccc(-c2nc(-c3ccc(OC4CNC4)cc3)no2)cc1,-19.5%,-9.9%,-36.4%,-19%,-17%
Nc1cc(C(F)(F)F)c(-c2cc(N3CCOCC3)nc(N3CCOCC3)n2)cn1,-8.73%,-9.28%,-0.584%,-20.6%,-6.07%
CC(=O)O[C@@H]1[C@H](O)[C@@H](O[C@@H]2O[C@@H](C)[C@H](O[C@@H]3OC[C@@H](O)[C@H](O[C@@H]4OC[C@@H](O)[C@H](O)[C@H]4O)[C@H]3O)[C@@H](O[C@@H]3O[C@H](CO)[C@@H](O)[C@H](O)[C@H]3O)[C@H]2O)[C@H](OC(=O)[C@]23CCC(C)(C)C[C@H]2C2=CCC4[C@@]5(C)CC[C@H](O[C@@H]6O[C@H](C(=O)O)[C@@H](O)[C@H](O[C@@H]7OC[C@@H](O)[C@H](O)[C@H]7O)[C@H]6O[C@@H]6O[C@H](CO)[C@H](O)[C@H](O)[C@H]6O)[C@@](C)(C=O)C5CC[C@@]4(C)[C@]2(C)CC3)O[C@@H]1C (stereo partly drawn),0%,20%,12.8%,9.69%,11.4%
CCOC(=O)c1cc2n(n1)CC(C)(C(=O)NC1CCCC1)N(c1ccc(C)c(Cl)c1)C2=O (stereo not drawn),-0.375%,2.75%,0.065%,-1.77%,-1.72%
COc1cccc(-c2cc(C(=O)N3CCC(Cn4cccn4)CC3)[nH]n2)c1,-12.7%,-8.97%,-5.87%,-24.8%,-22.3%
COC(=O)c1cc2n(n1)CC(C)(C(=O)NC1CCCCC1)N(Cc1ccc(C)cc1)C2=O (stereo not drawn),-3.4%,4.92%,4.58%,-1.02%,1.51%
COCCCOc1ccnc(CS(=O)c2nc3ccccc3[nH]2)c1C (stereo not drawn),2.55%,5.57%,-5.76%,-11.9%,-1.9%
Cc1cc(Cl)ccc1N1C(=O)CSc2c(c3ccccc3n2C)C1C(=O)NCc1ccccc1 (stereo not drawn),12.6%,0.414%,6.54%,4.47%,7.24%
